# According to the RNAGym collection of RNA variant scans (doi:10.7554/elife.90254):
# Read counts are not given, so values of variants with three or more changes are uncertain.
# B1: LINE1-mini (parent)
# chain: GGCAGAGCUCAACACAGCGUGGCAAAGUGGCUGUGGCUAGACUGCC
# Variants of: B1
# Assay: self-cleavage, relative activity (ratio to wild type); higher = more cleavage; in vitro, sequencing; the parent is a self-cleaving ribozyme
row,Variant,self-cleavage
1,GGCAGAGCUCAAAACAGCGUGGCAAACUGGCUCUGGCUAGAGUGCC [C13A G27C G33C C42G],0.11
2,GGAAGAGCUCAACACAACGUGGCAAAGUGGCUGUGGAGCGACUUCC [C3A G17A C37A U38G A39C G44U],0.01
3,GGCAAAGCUCAACACAGCGUGGAAAAGUUGCUGUGGCUAGACUGCC [G5A C23A G29U],0.26
4,GGGAGAGCUCCACACAGCGUCGCAAAGUGGCUGUGGCUAGACUGCC [C3G A11C G21C],0.02
5,GGCAGGGCUCUACACAGCGUGGCUAAGUGGCUGUGGCUAGACUGCC [A6G A11U A24U],0
6,GGAAGAGUUCAACACCGCGUGGCAAAGUGUCAGUGGCUAGACUGCC [C3A C8U A16C G30U U32A],0.38
7,GGCAGAGCUCACCACAGUAUGGCAAAGUGGCUGUGGCUAGACUGCC [A12C C18U G19A],0.02
8,GGCAGCGCGCAACACAGGGAGGCAAAGUGGCUGUGGCUAGACUGCC [A6C U9G C18G U20A],0.17
9,GGCAGAGUUCAACACAUCGUGUCAAAGUGGCUGUGGCUAGACUGCC [C8U G17U G22U],0.66
10,GGCGGAGCUCAACACAGCGUGGCAAAGUGUCUGUGUCUAGACUGCC [A4G G30U G36U],0.03
11,GUCAGAGAUCAACACAGCGUGGCAAACUGGCUGUUGCUAGACUGCC [G2U C8A G27C G35U],0.04
12,GGCAAAGCUCAACACAGCGUGGCAAAGUGCCUGAGGCUAGACUGCC [G5A G30C U34A],0.04
13,GGCACAGCUCAACAAAGCGUGGCAAAGUGGCUGUGGCAACACUGCC [G5C C15A U38A G40C],0.2
14,GGCAGAGCUCAACACAGCGUUGCAAAGUGGCUGGGGCCAGACUGCC [G21U U34G U38C],0.13
15,GGCAGUGAUCAACACAGCGUGUCAACGUGGCUGUGGAUAGACUGCC [A6U C8A G22U A26C C37A],0.03
16,GGCAGCGCUCAACACAGACUGGCAAAGUGGCUGUAGCUCGACUGCC [A6C C18A G19C G35A A39C],0.1
17,GGCAGACCUCAACAUAGCGUGGCGAAGUGGCUGUGGCUAGACUGCC [G7C C15U A24G],0.08
18,GGCAGAGCUCACCACAGCGUGGCAAAGUGGCUGUGGCUUGACUGUC [A12C A39U C45U],0.03
19,GUCAGUGCACAACACAGCCUGGCAAAGUGGCUGUGGAUAGACUGGC [G2U A6U U9A G19C C37A C45G],0.07

row,Variant,self-cleavage
1,GGUAGAGCUCAACGCAGUGUGGCAUAGUGGCUGUGGCUAGAGUGCC [C3U A14G C18U A25U C42G],0.08
2,CGCAGAGCUCAAGACAGCGUGGCAAAGUGGCUGUGGCUAGACUUCC [G1C C13G G44U],0.06
3,GGCAGAGCUCAUAACAGCGUGGCAAAGUGGCUGUGGCUAGAAUGCC [A12U C13A C42A],0.07
4,GGCAUAGCUCAACGCAGCGUGGCAAAGUGGCUGUGGCUAGAAUGCC [G5U A14G C42A],0.04
5,GGCAGAGCUCACCACAGCGUGGCAACGUGGAUGCGGCUAGACUGCC [A12C A26C C31A U34C],0.01
6,GGCAGAGCUGAACACAGCGUGGCAGAGUGCCAGAUGCUAGACUGGC [C10G A25G G30C U32A U34A G35U C45G],0.01
7,GGCAGAGCUCAACCCAGCGUGGCAAAGCGGCUGUGACUAGACUGCC [A14C U28C G36A],0.22
8,GGCAGAGCUCAACACAGCGUGGCAAAGUUAAUGUGGCUAAACUGCC [G29U G30A C31A G40A],0.04
9,GCCGGAGGUCAACACAGCGUUGCAAAGUUGCUGUGGCUAGACUGCC [G2C A4G C8G G21U G29U],0.01
10,GGCAGAUCUCAACACAGCGUGGCAAAGUGGCUGUGGCUUGACUUCC [G7U A39U G44U],0.21
11,GGCCGAGCUCAAAACAGCGUGGCACAGUGGCUAUGGCUAGACUGCC [A4C C13A A25C G33A],0.02
12,GGCAGAGCUCAACACAUCGUGGUAAAGUGGCUGUGGCUAGACUGGC [G17U C23U C45G],0.02
13,UGCAGAGCUCAACAACGCGUGGCAAAGUGGCUGUGGCUGGACUGCC [G1U C15A A16C A39G],0
14,GGCAGAGCUUAACACAGCGUGGCAAGGUGGCUGUGGCUAUACUGCC [C10U A26G G40U],0.03
15,GGCAGAGCUCAACCAAGCUUGGCAAAGUGGCUGUGAUUAGACUGCC [A14C C15A G19U G36A C37U],0.07
16,GGCAGAGCUCAACACAGCGUUGCAAAGUGGCUGAGGCUAGACUGAC [G21U U34A C45A],0.05
17,GGAAGAGCUCAAAACAGCGUGGCAAAGUAGCUGUGGCUAGACUGCC [C3A C13A G29A],1.33
18,GCCAGGGCUCAACAUAGCGUGGCAAAGUGGGGGUGGCUAGACUGCC [G2C A6G C15U C31G U32G],0.2
19,GGCAGAACUCAACUCAGCGGAGCAAAGUGGCUGUGGCUAGACUGUC [G7A A14U U20G G21A C45U],0.46

row,Variant,self-cleavage
1,GGCAGAGCUCAACACAGCGAGGCAAAGUGGCUGUGGAUCGACUGCC [U20A C37A A39C],0.03
2,GGCAGAGCUCAACACAGCGUGUCAAAGUGGCUGUGGGUCGACUGCC [G22U C37G A39C],0.04
3,GGCAGGGCUCAACACAGCGUGGCAAAGUGGCUGUGUCUAGACUGUC [A6G G36U C45U],0.05
4,GGCAGAGCUCAACUCAGCGUGGCAAAGUGGCUGUGGCUCGACUGCG [A14U A39C C46G],0.16
5,GGCAGAGAUCAACACUGCGUGGCAAAGUGGCUUUGGCUAGACUGCC [C8A A16U G33U],0.11
6,GGCAUAGCUCAACACAGCGAGGCAAAGUGGCUGUGCCUAGACUGCC [G5U U20A G36C],0.73
7,GGCAGAGAGCAACAUAGCGUGGCAAGGUGGCUGUGGCUAGACUGCC [C8A U9G C15U A26G],0.18
8,GGCAAAGCUAAACACAGCGUGGCAAAGUGGCUGAGGCUAAACUGCC [G5A C10A U34A G40A],0.03
9,GGCAGAUGUCUACACAGCGUGUCAAAGUGGCUGUGGAUAGACUGCU [G7U C8G A11U G22U C37A C46U],0.01
10,GACGGAGCUCAACACAGCGUGACACAGUGGCUGUGGCUAGAGUGCA [G2A A4G G22A A25C C42G C46A],0.09
11,GGCAGAGCUCUACUCAGCGUGGCCAAGUGGCUGUGGCUAGACUGCC [A11U A14U A24C],0.05
12,GGCAGAGCUCUACACAGUGAGGCAAAGUGGCUGUGGCUAGACUGCU [A11U C18U U20A C46U],0.26
13,GGGAGUGAUCAACACAGGGUGGCAAAGUUGCUGUGGCUAGAAUGCC [C3G A6U C8A C18G G29U C42A],0.2
14,GGCAUAGCUCAACACAGCGUGGCAAAGUGGCUGUGGAUAGACUGCA [G5U C37A C46A],0.03
15,GGCAGAGCUCAUCACAGCGUGGCAAAGUGGCUGUGGUUACACUGCC [A12U C37U G40C],0.03
16,GGCAUAGCUCAACAUAGCGUGGCAAAGUGGCUGUGGGUAGACUGCC [G5U C15U C37G],0.05
17,GGCACAGCUCAACAAAGCGUGGCAACGUGGCUGUGGCUAGACUGCC [G5C C15A A26C],0.04
18,CGCAGCGCUCAACACAUCGUGGCAAAGUGGCUGUGGCUAGACUGCC [G1C A6C G17U],0.01
